The source gives no read counts; variants with many changes may rest on few reads.
B1: CPEB3 Ribozyme (parent)
chain: UAACAGGGGGCCACAGCAGAAGCGUUCACGUCGCAGCCCCUGUCAGAUUCUGGUGAAUCUGCGAAUUCUGCUGUAUAUCUC

Variants of: B1
Test: self-cleavage, relative activity (ratio to wild type); higher = more cleavage; in vitro, sequencing
Summary of the method: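 Relative activity compares each variant's cleaved/total read fraction with that of the unmutated ribozyme. To get these fractions, barcoded CPEB3 ribozyme libraries from rounds of error-prone PCR were transcribed with T7 RNA polymerase for 5 hours at 37°C and then given 15 min of DNase I treatment before EDTA was added. The RNAs were reverse transcribed with template switching and sequenced on Illumina, and DNA sequencing linked barcodes to variants. A minimum of 5 reads applied, and three batches were averaged.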

Variant | self-cleavage
UAACAGGGGGCCUCAGCAGAAGCGUUCACGUCGCAGCCCCUGUGAGAUUCCGGUGAAUCUGCGAAUUCUGCUGUAUAUCUC [A13U C44G U51C] | 0.58
UAACAGGGGGCCUCAGAAGAAGCGUUCACGUCGCAGCCCCUGUCAGAUUCUGGUGAAUCUGCGGAUUCUGCUGUAUAUCUC [A13U C17A A64G] | 0.33
UAACAGGGGGCCUCAGCAGAAGCGUUCACGUCGCAGCCCUUGUCAGAUUCUGGUGAAUCUGCGAAUUCUGCUGUAAAUCUC [A13U C40U U76A] | 1.14
UAACAGGGGGCCUCAGCAGAAGCAUUCAUGUCGCAGCGCCUGUCAGAUUCUGGUGAAUCUGCGAAUUCUGCUGUAUGUCAC [A13U G24A C29U C38G A77G U80A] | 0.04
UAACAGGGGGCCUCAGCAAAAGCGUUCACGUCGCAGCCCCUGUCAGAUUCUGGUGAAUCUGCGAAUACUGCUGUAUAUCUC [A13U G19A U67A] | 0.3
UAACAGGGGGCCUCAACAGAAGCGUUCACGUCGCAGCCCCUGCCAGAUUCUGGUGAAUCUGCGAAUUCUGCUGUAUAUCCC [A13U G16A U43C U80C] | 0.15
UAACAGGGGGCCUUAGCAGAAGCGUUCACGUCGCAGCCCCUGUCGGAUUCUGGUGAAUCUGCGAACUCUGCUGUAUAUCUC [A13U C14U A45G U66C] | 0.26
UAACAGGGGGCCUCAUCAGAAGCGUUCACGUCGCAGCCCCUGUCAGAUUCUGGAGAAUCUGCAAAUUCUGCUGUAUAUCUC [A13U G16U U54A G63A] | 0.16
UAACAGGGGGCCUCAGCAGAAGCGUUCACGUCGCAGCCCCUGUCAGAUUCUGGUGAGUCUGCGAAUUCUGCUGUAUACCUC [A13U A57G U78C] | 1.24
UAACAGGGGGCCUCAGCAGAAGCGUUCACGUCGCAGCCCCUGUUCGGUUCCGGUGAAUCUGCGAAUUCGGCUGUAUAUCUC [A13U C44U A45C A47G U51C U69G] | 0.11
UAACAGGGGGCCUCAGCAGAAGCGUUCACGUCGCAGCCCCUGUCAGGUUCUGGUGGAUCUGCGAACUCUGCUGUAUAUCUC [A13U A47G A56G U66C] | 0.15
UAACAGGGGGCCUCAGCAGAAGCGUUCACGUCGCAGCCCCUGUCAGGUUCUGGAGAACCUGCGAAUUCUGCUGUAUAUCUC [A13U A47G U54A U58C] | 1.25
UAACAGGGGGCCUCAGCAGAAGCGUUCACGUCGCAGCCCCUGUCAGAUUCUGGUGGAUCUGCGAAUUCUGCUGUAUUACUC [A13U A56G A77U U78A] | 0.91
UAACAGGGGGCCUCAGCAGAAGCGUUCACGUCACAGCCCCAGUCAGAUUCUGGUGAAUCCGCGAAUUCUGCUGUACAUCUC [A13U G33A U41A U60C U76C] | 0.08
UAACAGGGGGCCUCAACAGAAGCGUUCACGUCGCAGCCCCUGACAGAUUCUGGUGAAUCUGCGAAUUAUGCUGUAUAUCUC [A13U G16A U43A C68A] | 0.18
UAACAGGGGGCCUCAGCAGAAGCGUUCACGUCGCAGCCUCUGACAGAUUCUGGUGAUCCUGCGAAUUCUGCUGUAUAUCUC [A13U C39U U43A A57U U58C] | 0.14
UAACAGGGGGCCUCAGCAGAAGCGUUCACGUCGCAGCCCCUGUCGGAUUCUGGUGAAACUGCGAAGUCUGCUGUAUAUCUC [A13U A45G U58A U66G] | 0.28

Variant | self-cleavage
UAACAGGGGGCCUCAGCAAAAGCGUUCACGUCGCAGCCCCUGUCCGAUUCUGGUGAAUCUGCGAAUUCUGCUGUAUAUCUC [A13U G19A A45C] | 0.27
UAACAGGGGGCCUUAGCAGAAGCGUUCACGUCGCAGCCCCUGUCAGACUCUGGUGAAUCUGCGGAUUCUGCUGUAUAUCUC [A13U C14U U48C A64G] | 0.41
UAACAGGGGGCCUCAGCAGAAGCGUUCACGUCGCAGCCCCUGUCUGAUUCUGGUGUAUCUGCGAAUUCUGCUGCACAUCUC [A13U A45U A56U U74C U76C] | 0.22
UAACAGGGGGCCUCAGCAGAAGCGUUCACGUCGCAGCCCCUGUCAGUUUCCGGUGAGUCAGCGAAUUCUGCUGUAUAUAUC [A13U A47U U51C A57G U60A C79A] | 0.29
UAACAGGGGGCCUCAGCAGAAGCGUUCACGUCGCAGCCGCUGUCAGAUGCUGGUGAAUCUGCGGAUUCUGCUGUAUAUCUC [A13U C39G U49G A64G] | 0.13
UAACAGGGGGCCUCAGCAGAAGCGUUCACGUCGCACCCCCUGUCAGAUUCUGGCGAAUCUGCGGAUUCUGCUGUAUAUCUC [A13U G36C U54C A64G] | 0.11
UAACAGGGGGCCUCAGCAGAAGCGUUCACGUCGCAGCCCCUGUCAGGUUCAGGUGAAUCUGCGAAUUCUGCUGUAUAUCUC [A13U A47G U51A] | 1.02
UAACAGGGGGCCUCAGCAGAAGCGUUCACGUCGCAGCCCCUGUCAGAUUCUGGUGAAUCUGUGAAUCCUGCUGUAUAUCUC [A13U C62U U67C] | 0.26
UAACAGGGGGCCUCAGCAGAAGCGUUCACGUCUCAGCCUCUGUCAGAUUCUGGAGAGUCUGCGAAUUCUGCUGUAUAUCUC [A13U G33U C39U U54A A57G] | 0.07
UAACAGGGGGCCUCAGCAGAAGCGUUCACGUCGCAGCCCCUGUCAGGUUCUGGCGAAUCUGCGAAUUCUGCUGUAUAUCCC [A13U A47G U54C U80C] | 0.65
UAACAGGGGGCCUCAUCAGAAGCGUUCACGUUGCAGCCCCUGUCAGAUUCUGGUGAAUCUGCGAAUCCAGCUGUAUAUCUC [A13U G16U C32U U67C U69A] | 0.09
UAACAGGGGGCCUCAGCAGAAGCGUUCACGUCGCAGCCCUUAUCAGAUUCUGGUGAAUCUGCGAAUUCUGCUGUAUAUCCC [A13U C40U G42A U80C] | 0.1
UAACAGGGGGCCUCAGCAGAAGCCUUCACGUCGCAGCCCCUGUCAGACUCUGGUGAAUCUGCGAGUUCUGCUGUAUAUCUC [A13U G24C U48C A65G] | 0.05
UAACAGGGGGCCUCAGCAUAAGCGUUCACGUCGCAGCCCCUGUCUGAUUCUGGUGAAUCUGCGAAUUCUGCUGUAUGUCUC [A13U G19U A45U A77G] | 0.28
UAACAGGGGGCCUCAGCAGAAGCAUUCACGUCGCAGCCCCCGCCUGAUUCGGGUGAAUCUGCGGAUUCUGCUGUAUAUCUC [A13U G24A U41C U43C A45U U51G A64G] | 0.16
UAACAGGGGGCCUCAGCAGAAGCGUUCACGUCGGAGCCCCUGUCAGAUUCUGGUGAAUCUGCGAAUUCUGCUGUAUCUCUC [A13U C34G A77C] | 0.08
UAACAGGGGGCCUCAGCAGAAGCGUUCAUGCCGCAGCCCCUGUCAGGUUCUGGUGAAUCUGCGAACUCUGCUGUAUAUCUC [A13U C29U U31C A47G U66C] | 0.06

Reference: the RNAGym collection of RNA variant scans (doi:10.1093/nar/gkz1192)
